From PubChem BioAssay AID1347073 (National Center for Advancing Translational Sciences (NCATS), 2019)
Among all 45,000 compounds or so, about 200 (0.44%) were called active. This list was built around the results that the source calls inconclusive (neither active nor inactive); the mix of calls is not that of the screen. Calls come from the whole dose curve; as a rule, active = well fitted activation curve with a large enough effect; inconclusive = small, poorly fitted or top-dose-only effect; inactive = no such curve, though single readings can be large or run the other way. Potencies of inconclusive entries are doubtful fits and often do not repeat.

Assay: qHTS of TDP-43 Inhibitors: NCGC Sytravon Library Screen; note: nearly all actives have a fitted effect of over 55% in size; for growth rescue (activation): 0% is about no effect
Conditions: yeast TDP-43 toxicity rescue, BacTiter-Glo growth, 24 h; growth rescue (activation): at 46.1 µM (top of the series)
Outline: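 TDP-43-expressing yeast, pregrown in raffinose, seeded at OD600 0.02 in galactose medium with compound for 24 hr at 30 deg C. Growth read by BacTiter-Glo luminescence, so rescue of toxicity appears as activation.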
Potency is the fitted concentration of half-maximal effect; tags give direction and shape of the fitted curve.

SMILES	growth rescue (activation)	Potency
Cc1ccc(N2CCN(c3nc4ccccc4n4nnnc34)CC2)c(C)c1	inactive: 8.11%	
COc1ccc(Oc2cn[nH]c2-c2ccc(OC)cc2O)cc1		inconclusive: 15.8 µM [activator, single point]
Cc1ccn(CC(=O)N2CCCC(N3CCN(Cc4ccc5c(c4)OCO5)CC3)C2)n1 (stereo not drawn)	inactive: 14.3%	
OC(c1ccccc1)(c1nc(-c2csc3ccccc23)cs1)C(F)(F)F (stereo not drawn)	inconclusive: -88.9% [activator]	
COc1ccc(-c2csc(C(C)(O)c3ccc(F)c(F)c3)n2)cc1 (stereo not drawn)	inconclusive: 113% [activator]	
COc1cccc(/C=C2\SC(=S)N(N3C(=O)CCCC3=O)C2=O)c1		inconclusive: 35.5 µM [activator, single point]
NC(=S)N/N=C/c1ccc(-c2cc(Cl)cc(Cl)c2)o1		inconclusive: 22.4 µM [activator, single point]
Cc1ccc(C(=O)/C=C/NCc2ccc(F)cc2)cc1	inactive: 28.7%	
Cc1cc(NCc2ccccn2)n2nc(C)c(-c3ccccc3)c2n1		inconclusive: 22.4 µM [activator, single point]
C=CCNC(=S)N(Cc1ccccc1)Cc1ccc(F)cc1		inconclusive: 12.6 µM [activator, single point]
Cc1ccccc1C(=O)Nc1nnc([C@@H]2C[C@H](O)[C@@H](CO)O2)s1	inactive: -10.8%	
COc1ccc(-c2cc(C(=O)NCCc3ccc(OC)c(OC)c3)c3ccccc3n2)cc1		inconclusive: 17.8 µM [activator, partial curve, poor fit]
c1nc(Nc2ccc(N3CCOCC3)cc2)c2ccsc2n1		inconclusive: 14.1 µM [activator, partial curve, poor fit]
COc1ccc(-c2csc(C(C)(O)c3cccc(F)c3)n2)cc1 (stereo not drawn)		active: 14.1 µM
CC(=O)NCCNC(=O)c1ccc(NC2=NC3CS(=O)(=O)CC3S2)cc1 (stereo not drawn)		inconclusive: 14.1 µM [activator, partial curve, poor fit]
C=CCN=c1scc(-c2ccccc2)n1/N=C/c1ccccn1		inconclusive: 31.6 µM [activator, single point]
CCCn1c(CCC(=O)O)nc2cc(S(=O)(=O)N3CCCC3)ccc21		inconclusive: 35.5 µM [activator, single point]
Cc1ccc(C(C)C)cc1OCC(=O)Nc1ccc(-n2cnnn2)cc1		inconclusive: 11.2 µM [activator, partial curve, poor fit]
O=C(CSc1ncnc2sc(-c3ccccc3)cc12)NC1CCS(=O)(=O)C1 (stereo not drawn)	inactive: -2.34%	
O=C(CCc1nnc(-c2ccc(-c3ccccc3)cc2)o1)N1CCCCC1		inconclusive: 11.2 µM [activator, partial curve, poor fit]
CC(C)Cn1cc(C(=O)N2CCC(C)CC2)c2c3ccccc3n(C)c2c1=O		inconclusive: 14.1 µM [activator, single point]
COc1ccc(-c2ccc(C(=O)NCc3ccc(N4CCN(C)CC4)cc3)c3occc23)c(C)c1	inactive: 19.2%	
COc1cc(/C=N/OCC(=O)Nc2cc(C)cc(C)c2)ccc1OCc1ccc(Cl)cc1		inconclusive: 35.5 µM [activator, partial curve, poor fit]

SMILES	growth rescue (activation)	Potency
O=C(CSc1nnc(-c2ccccc2)c(-c2ccccc2)n1)Nc1ccc(Br)cn1	inactive: 13.3%	
COc1cc(/C=N/NC(=O)CNc2n[nH]c(=O)[nH]c2=O)ccc1OCc1ccccc1		inconclusive: 35.5 µM [activator, single point]
COc1cc2c(cc1OC)C(c1cccc([N+](=O)[O-])c1)N(C(=O)c1ccc(F)cc1)CC2 (stereo not drawn)		inconclusive: 25.1 µM [activator, single point]
Cc1cc(F)ccc1NCC(=O)Nc1ccccc1Br		inconclusive: 12.6 µM [activator, partial curve, poor fit]
Cc1ccc(-c2nn(-c3ccccc3)cc2/C=C/C(=O)O)o1		inconclusive: 22.4 µM [activator, single point]
COC(=O)Nc1ccc(SCC(=O)c2ccc(Cl)cc2)cc1		inconclusive: 20 µM [activator, partial curve, poor fit]
CC1(C(=O)NS(=O)(=O)c2ccc(Cl)cc2)CCN1C(=O)c1ccccc1CCc1ccccc1 (stereo not drawn)		inconclusive: 20 µM [activator, single point]
S=c1[nH]nc(Cc2ccc(Cl)cc2)o1		inconclusive: 20 µM [activator, single point]
CC(=O)c1ccc(N2CCN(C(=O)Nc3ccc(C(C)C)cc3)CC2)cc1		inconclusive: 12.6 µM [activator, partial curve, poor fit]
O=C(O)/C=C/c1coc2ccc(F)cc2c1=O		inconclusive: 25.1 µM [activator, single point]
Cc1ccc(C(C)C)c(OCC(=O)Nc2ccc(O)c(-c3nc4cc(Cl)ccc4o3)c2)c1	inactive: 1.97%	
CCC(=O)NC(=S)Nc1ccc(N2CCN(C(=O)c3ccc(Cl)cc3)CC2)cc1		inconclusive: 25.1 µM [activator, single point]
COc1ccc(N=Nc2c(C)n[nH]c2C)cc1		inconclusive: 12.6 µM [activator, partial curve, poor fit]
Cc1ccc(CS(=O)(=O)c2ncc(Cl)c(C(=O)Nc3ccc(OC(F)F)cc3)n2)cc1		inconclusive: 1.58 µM [activator, full curve, poor fit]
COc1ccccc1N1CCN(/N=C/C(Cl)=C/c2ccccc2)CC1		inconclusive: 10 µM [activator, partial curve, poor fit]
CC(Cc1n[nH]c(=S)o1)c1ccccc1 (stereo not drawn)		inconclusive: 35.5 µM [activator, single point]
Nc1nnc(CSc2ccc(Cl)cc2)s1		inconclusive: 20 µM [activator, partial curve, poor fit]
CCc1ccc(C)[n+](CC(=O)c2cccs2)c1	inconclusive: -33.9% [activator]	
CC(C)(C)Nc1nc(Cl)nc(NCc2ccccc2)n1		inconclusive: 14.1 µM [activator, single point]
COc1ccc(Nc2nc(S(=O)(=O)c3ccc(C)cc3)c(Cl)s2)cc1		inconclusive: 10 µM [activator, partial curve, poor fit]
COc1ccc(CNC(=O)Nc2cccc(C(F)(F)F)c2)cc1OC	inactive: -9.36%	
COc1cc(C(=O)NNC(=O)c2ccc3c(c2)OCCO3)cc(OC)c1OC	inactive: 0.187%	
O=C(Cc1coc2cc3c(cc12)CCC3)OCC(=O)N1CCCC1=O		inconclusive: 12.6 µM [activator, partial curve]

SMILES	growth rescue (activation)	Potency
COc1cccc(-c2cc(C(=O)NCc3cccs3)no2)c1		inconclusive: 25.1 µM [activator, partial curve, poor fit]
CCc1c(C)nc2nncn2c1Nc1ccc(Cl)cc1	inactive: 25.9%	
CC1=C(C(=O)Nc2cc(Cl)ccc2C)C2(CCCCC2)OC1=O		inconclusive: 17.8 µM [activator, single point]
CC(=O)Nc1ccc(SCc2ncc(-c3ccccc3)o2)cc1		inconclusive: 10 µM [activator, single point]
CCCc1cc(=O)[nH]c(SCC(=O)Nc2ccc(Br)cc2)n1		inconclusive: 35.5 µM [activator, single point]
O=C(CSc1nc2ccccc2c(=O)n1-c1ccccc1)c1cccc([N+](=O)[O-])c1		inconclusive: 35.5 µM [activator, single point]
Cc1ccc(S(=O)(=O)Cn2nnnc2C(CC(C)C)N2CCN(C)CC2)cc1 (stereo not drawn)	inactive: 7.84%	
CCSc1nc2ccc(N3C(=O)C4C5C=CC(C5)C4C3=O)cc2s1 (stereo not drawn)		inconclusive: 35.5 µM [activator, partial curve, poor fit]
O=C(NC(c1ccc(Cl)cc1)c1cnccn1)C1CCN(Cc2cccc(C(F)(F)F)c2)CC1 (stereo not drawn)	inactive: -5%	
CC(C)Cc1nc(SCC(=O)Nc2nnc(CC(C)C)s2)n[nH]1		inconclusive: 14.1 µM [activator, partial curve, poor fit]
N/C(=N\OC(=O)c1ccc(Br)cc1)c1ccncc1		inconclusive: 11.2 µM [activator, single point]
COc1ccc(-n2c(SCC(=O)N(C)C3CCS(=O)(=O)C3)nc3ccc(O)cc3c2=O)cc1OC (stereo not drawn)	inactive: 5.99%	
O=C1Nc2ccccc2N(O)N1c1ccc(S(=O)(=O)N2CCOCC2)cc1	inactive: -8.97%	
[O-][n+]1cccc2c(Br)cc(Br)c(O)c21		active: 7.94 µM
Cn1c(NCc2cccnc2)nc2cc(-c3ccc(F)cc3)sc2c1=O	inactive: 0.425%	
Oc1ccc(C=Nc2ccc(N3CCOCC3)cc2)c(O)c1		inconclusive: 11.2 µM [activator, partial curve, poor fit]
COc1ccc(Nc2oc(/C=C/c3ccc(F)cc3)nc2C#N)cc1	inactive: 0.499%	
CCCCN(C(C)=O)c1c(CC)nc2ccc(C(=O)NCCc3ccccn3)cn12	inactive: -6.71%	
O=C1c2ccccc2C(=O)c2[nH]c(=O)[nH]c21		inconclusive: 11.2 µM [activator, partial curve, poor fit]
O=C(NCc1ccco1)c1ccc(Cl)c(S(=O)(=O)N2CCc3ccccc32)c1		inconclusive: 12.6 µM [activator, single point]
O=C(/C=C/c1ccco1)Nc1cc(Cl)ccc1C(=O)O		inconclusive: 14.1 µM [activator, partial curve, poor fit]
CCc1cc(-c2nc(N)ncc2-c2ccc(Br)cc2)c(O)cc1OC		inconclusive: 28.2 µM [activator, single point]
